Hit rate of the full screen: of about 48,000 compounds, about 450 (0.94%) were called active. This list was built around the results that the source calls inconclusive (neither active nor inactive); the mix of calls is not that of the screen. Calls follow the shape of the dose curve; as a rule, active = well fitted inhibition curve with a large enough effect; inconclusive = small, poorly fitted or top-dose-only effect; inactive = no such curve, though single readings can be large or run the other way. Potencies of inconclusive entries are doubtful fits and often do not repeat.
test: Primary qHTS for Identification of Small Molecule Inhibitors of Huntingtin Promoter Activity; settings: HEK293 HTT promoter firefly luciferase reporter (activity 0% = vehicle and -100% = no light), 24 h; series mostly up to 57.5 µM; also: nearly all actives have a fitted effect of over 50% in size
Outline: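 HEK293 Fluc reporter, 2,500 cells/well, 24 h pre-culture; cpds up to 57.5 uM final, 24 h 37 degrees C; Dual-Glo, 10 min RT; normalized vehicle = 0%, zero RLU = -100%.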
Potency is read from the fitted curve at half-maximal effect; tags tell the direction and shape of the fitted curve.

Question: With Clc1ccccc1CN1CCc2nc(N3CCN(c4ncccn4)CC3)ncc2C1 as the compound, how does the Potency read?
Answer: inconclusive: 25.1 µM [inhibitor, partial curve, poor fit]

Question: For Cc1nc(-c2cccc(S(=O)(=O)N3CCC(C(=O)NCc4ccccc4Cl)CC3)c2)no1, which Potency is on record?
Answer: inconclusive: 20 µM [inhibitor, single point]

Question: Which Potency does the source give for Cn1nc(-c2ccccc2F)c2cc(C(=O)NCc3cccc(Cl)c3)sc21 here?
Answer: inconclusive: 20 µM [inhibitor, single point]

Question: Which Potency does the source give for Cc1cc(C)cc(NC(=O)c2cc(S(=O)(=O)N3CCCC3)ccc2F)c1 here?
Answer: inconclusive: 31.6 µM [inhibitor, partial curve, poor fit]

Question: For Cc1cccc(CSc2nnc(CCCCCN)o2)c1, which Potency is on record?
Answer: inconclusive: 31.6 µM [inhibitor, partial curve, poor fit]

Question: With Cc1ccc(C)c(NC(=O)c2nnn(Cc3ccc(F)cc3Cl)c2N)c1 as the compound, how does the Potency read?
Answer: inconclusive: 35.5 µM [inhibitor, single point]

Question: With CCC1Oc2ccccc2N(CC(=O)NCCc2ccc(OC)c(OC)c2)C1=O (stereo not drawn) as the compound, how does the Potency read?
Answer: inconclusive: 22.4 µM [inhibitor, partial curve, poor fit]

Question: With COc1ccc(CCNS(=O)(=O)c2ccc(N3CCCCS3(=O)=O)cc2)cc1 as the compound, how does the Potency read?
Answer: inconclusive: 25.1 µM [inhibitor, partial curve, poor fit]

Question: For O=c1[nH]c2ccc(NCc3ccc(-c4ccc(F)cc4)o3)cc2[nH]1, which Potency is on record?
Answer: inconclusive: 15.8 µM [inhibitor, partial curve]

Question: Which Potency does the source give for c1ccc2c(c1)ncc1nncn12 here?
Answer: inactive

Question: For CCC1CCCCN1S(=O)(=O)c1cc2c(cc1C)NC(=O)CO2 (stereo not drawn), which Potency is on record?
Answer: inconclusive: 25.1 µM [inhibitor, single point]

Question: Which Potency does the source give for CCCc1nn2cc(-c3ccc(C)c(C)c3)nc2s1 here?
Answer: inconclusive: 39.8 µM [inhibitor, single point]

Question: Which Potency does the source give for COc1ccc(-c2noc(CSc3nnc(Cc4ccccc4)n3-c3cccc(C)c3)n2)cc1 here?
Answer: inconclusive: 31.6 µM [inhibitor, single point]

Question: For COc1ccc(/C=C/C(=O)Nc2ccc3nc4c(c(Nc5ccc(OC)c(OC)c5)c3c2)CCCC4)cc1, which Potency is on record?
Answer: inconclusive: 22.4 µM [inhibitor, single point]

Question: Which Potency does the source give for COc1ccc(-c2cnnn2-c2ccc(NC(=O)c3ccccc3OC)cc2)cc1 here?
Answer: inconclusive: 39.8 µM [inhibitor, single point]

Question: With COc1ccc(-c2nc3sc(CCNC(=O)C(=O)Nc4cccc(NC(C)=O)c4)c(C)n3n2)cc1 as the compound, how does the Potency read?
Answer: inconclusive: 39.8 µM [inhibitor, single point]

Question: Which Potency does the source give for COCCNC(=O)c1nn(-c2ccc(C)cc2)c(=O)c2c1c1ccccc1n2C here?
Answer: inactive

Question: With CO[C@@H]1C(N(C)C(=O)c2ccccc2)C[C@H]2O[C@]1(C)n1c3ccccc3c3c4c(c5c6ccccc6n2c5c31)C(=O)NC4=O (stereo partly drawn) as the compound, how does the Potency read?
Answer: inconclusive: 19.3 µM [inhibitor, partial curve, poor fit]

Question: Which Potency does the source give for CC1=C(c2ccc(F)cc2)S(=O)(=O)N=C1N1CCC(C(=O)NCCc2cccc(C)c2)CC1 here?
Answer: inconclusive: 12.6 µM [inhibitor, partial curve]

Question: Which Potency does the source give for O=C(NCc1ccc2c(c1)CCN2C(=O)c1ccccc1)Nc1cccc(C(F)(F)F)c1 here?
Answer: active: 22.4 µM

Question: For Cc1ccccc1OCCSc1nc2ccc(NC(=O)c3cccc(F)c3)cc2s1, which Potency is on record?
Answer: inconclusive: 28.2 µM [inhibitor, single point]

Question: With COc1ccc(Cn2ccnc2SCC(=O)Nc2nc3ccccc3s2)cc1 as the compound, how does the Potency read?
Answer: inconclusive: 28.2 µM [inhibitor, partial curve, poor fit]

Question: With Cc1ccccc1-c1nc(CN2CCC(C(=O)NCc3ccc(F)cc3)CC2)c(C)o1 as the compound, how does the Potency read?
Answer: inconclusive: 39.8 µM [inhibitor, single point]

Question: For CC(=O)c1ccc(NC(=O)c2ccc3c(c2)N(Cc2cccc(Cl)c2)C(=O)c2ccccc2S3=O)cc1 (stereo not drawn), which Potency is on record?
Answer: inconclusive: 39.8 µM [inhibitor, single point]

Question: With COc1ccc(NC(=O)c2cc3c(s2)-c2c(C)cccc2OC3)cc1Cl as the compound, how does the Potency read?
Answer: inconclusive: 35.5 µM [inhibitor, single point]

Question: With CCCN(CCC)c1ccc(C2N=C(N)Nc3nc4ccccc4n32)cc1 (stereo not drawn) as the compound, how does the Potency read?
Answer: inconclusive: 28.2 µM [inhibitor, single point]

Question: Which Potency does the source give for CCCCNC(=O)CCCCCn1c(=O)[nH]c2ccccc2c1=O here?
Answer: inconclusive: 8.91 µM [inhibitor, partial curve, poor fit]

Question: With Cc1ccc(C)c(N2CCN(S(=O)(=O)c3cc(C(=O)Nc4ccc(Oc5ccccc5)cc4)ccc3F)CC2)c1 as the compound, how does the Potency read?
Answer: active: 2 µM

Question: For CCOc1ccc(C2CC(=O)Nc3nc(SCc4ccccc4C)[nH]c(=O)c32)cc1OC (stereo not drawn), which Potency is on record?
Answer: inconclusive: 20 µM [inhibitor, partial curve, poor fit]

Question: Which Potency does the source give for O=C(NCc1cccnc1)c1nn(-c2ccc(Cl)cc2)nc1CO here?
Answer: inconclusive: 17.8 µM [inhibitor, single point]

Question: Which Potency does the source give for COc1ccc(C2CC(=O)N3CN(C4CCCCC4)CSC3=C2C#N)c(OC)c1 (stereo not drawn) here?
Answer: inactive

Question: Which Potency does the source give for COc1ccccc1C1CC(=O)NC(C)=C1C(=O)OC1CCCCCC1 (stereo not drawn) here?
Answer: inconclusive: 39.8 µM [inhibitor, single point]

Question: For Cn1cc(CN(C(=O)Nc2ccccc2)C2CCCCC2)c2ccccc21, which Potency is on record?
Answer: inactive

Question: Which Potency does the source give for CC(C)Cn1c(CN2CCN(c3cccc(Cl)c3)CC2)nc2c1c(=O)[nH]c(=O)n2C here?
Answer: inconclusive: 28.2 µM [inhibitor, partial curve]

Question: Which Potency does the source give for O=C(CCCn1c(=O)[nH]c2ccc(Br)cc2c1=O)N1CCN(c2cccc(Cl)c2)CC1 here?
Answer: inconclusive: 28.2 µM [inhibitor, single point]

Question: For COc1ccccc1C(=O)NCC(c1ccc(N(C)C)cc1)N1CCc2ccccc21 (stereo not drawn), which Potency is on record?
Answer: inactive

Question: For COC(=O)c1ccccc1NC(=O)Cn1nnc(-c2ccc(OC)cc2)n1, which Potency is on record?
Answer: inactive

Question: Which Potency does the source give for CCOc1ccc(-c2cn3c(n2)sc2cc(C(=O)NCCCN4CCCCC4)ccc23)cc1 here?
Answer: inconclusive: 28.2 µM [inhibitor, partial curve, poor fit]

Question: For COc1cc(NC(=O)c2ccc(-c3nc(CSc4ccccc4)c(C)o3)cc2)cc(OC)c1, which Potency is on record?
Answer: inconclusive: 15.8 µM [inhibitor, partial curve, poor fit]

Question: With COc1ccc(N(CC(C)C)S(=O)(=O)c2nnc(NC(=O)c3ccco3)s2)cc1 as the compound, how does the Potency read?
Answer: inconclusive: 20 µM [inhibitor, single point]

Question: Which Potency does the source give for CCc1ccc(-c2nc(CS(=O)CC(=O)NCc3ccc(F)cc3)c(C)o2)cc1 (stereo not drawn) here?
Answer: inconclusive: 17.8 µM [inhibitor, partial curve, poor fit]

Question: Which Potency does the source give for COc1ccccc1NC(=O)Cn1c(=O)oc2cc(S(=O)(=O)NCc3ccccc3)ccc21 here?
Answer: inconclusive: 35.5 µM [inhibitor, partial curve, poor fit]

Question: For Cc1ccc(NCc2cc3cc4c(cc3n(CC(=O)Nc3ccc(C)cc3)c2=O)OCCO4)cc1, which Potency is on record?
Answer: inactive

Question: With Cc1ccc(C)c(S(=O)(=O)c2nnn3c2nc(NC2CCCC2)c2sccc23)c1 as the compound, how does the Potency read?
Answer: inconclusive: 39.8 µM [inhibitor, single point]

Question: Which Potency does the source give for O=c1c(-c2ccccc2)c1-c1ccccc1 here?
Answer: inconclusive: 39.8 µM [inhibitor, single point]

Question: Which Potency does the source give for CCc1ccc(CNC(=O)c2cccc(-n3c(C)nc4cccnc43)c2)cc1 here?
Answer: inconclusive: 10 µM [inhibitor, partial curve]

Question: For CCOc1ccccc1NC(=O)c1c2c(nc3ccccc13)C(=O)N(C1CCCCC1)C2, which Potency is on record?
Answer: inconclusive: 39.8 µM [inhibitor, single point]

Question: With Cc1cc(Nc2cc(CN3CCOCC3)c3nc(C)c(Cc4ccc(Cl)cc4F)n3n2)n[nH]1 as the compound, how does the Potency read?
Answer: inconclusive: 24.3 µM [inhibitor, partial curve, poor fit]

Question: For O=C(C1CCC(CNS(=O)(=O)c2ccc(Br)s2)CC1)N1CCN(c2ccc(F)cc2)CC1 (stereo not drawn), which Potency is on record?
Answer: inconclusive: 1.26 µM [inhibitor, full curve, poor fit]

Question: Which Potency does the source give for CO[C@H]1/C=C\O[C@@]2(C)Oc3c(C)c(O)c4c(O)c(c5c(nc6cc(C)ccn65)c4c3C2=O)NC(=O)C(C)=CC=C[C@H](C)[C@H](O)[C@@H](C)[C@@H](O)[C@@H](C)[C@H](OC(C)=O)[C@H]1C here?
Answer: inactive

Question: Which Potency does the source give for CCOC(=O)N1CCc2c(sc(NCc3ccc(N(CC)CC)cc3)c2C(=O)Nc2cc(OC)ccc2OC)C1 here?
Answer: inconclusive: 15.8 µM [inhibitor, partial curve, poor fit]

Question: Which Potency does the source give for Nc1nnc(-c2cccc(Cl)c2Cl)c(N)n1 here?
Answer: inconclusive: 34.3 µM [inhibitor, single point]

Question: For CCOC(=O)c1cc(-c2ccc(C)cc2)n(CCCC(=O)Nc2cc(C)ccc2C)c1, which Potency is on record?
Answer: inconclusive: 11.2 µM [inhibitor, partial curve, poor fit]

Question: With CC[C@@]1(O)C(=O)OCc2c1cc1n(c2=O)Cc2cc3c(CN(C)C)c(O)ccc3nc2-1 as the compound, how does the Potency read?
Answer: inconclusive: 0.0685 µM [inhibitor, full curve, poor fit]

Question: Which Potency does the source give for CCCCC(=O)N1CCc2cc(OC)c(OC)cc2C1COc1ccc(C(=O)OCC)cc1 (stereo not drawn) here?
Answer: inconclusive: 39.8 µM [inhibitor, single point]

Question: With O=C(NCc1ccco1)c1ccc2c(c1)N(Cc1ccccc1)C(=O)c1ccccc1S2 as the compound, how does the Potency read?
Answer: inconclusive: 28.2 µM [inhibitor, partial curve, poor fit]

Question: With Cc1cc(C)c(S(=O)(=O)NCCc2sc3nc(-c4ccc(F)cc4)nn3c2C)c(C)c1 as the compound, how does the Potency read?
Answer: inconclusive: 31.6 µM [inhibitor, partial curve, poor fit]

Question: For O=C(NC1CCCCC1)c1ccc(CSc2nc3cccnc3n2Cc2cccc(F)c2)cc1, which Potency is on record?
Answer: inconclusive: 31.6 µM [inhibitor, single point]

Source: PubChem BioAssay AID1508623 (National Center for Advancing Translational Sciences (NCATS), 2021)
